The IC50 comes from the fitted curve, where viability falls to half of the control; where the fit passes the top or lowest dose, that dose stands as a limit. AUC is the area under the same curve over the 256-fold range up to the top dose, as a fraction; the more sensitive the line, the further below 1. For some assays here: Where the top dose is marked as inferred, it was derived from the fitted curves, not read from the paper.
How the values were obtained:
Experiment in all cases: Viability of human cancer cell lines after 72 h of drug (GDSC screen)
[1] = compound: CC(=O)O[C@@H]1[C@@H](OC(C)=O)[C@@H](O)[C@H](Oc2c(-c3ccc(O)cc3)oc3cc(O)cc(O)c3c2=O)O[C@H]1C [SL 0101-1]; settings: top dose 10 µM; top dose inferred
Method: (§1)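 Human cancer cell lines in 384-well plates, medium with 10% serum, drug for 72 h over a 256-fold dose range (nine 2-fold or five 4-fold steps up to the top dose). Adherent lines were fixed and stained with the nucleic acid dye Syto60, suspension lines read with resazurin; signal relative to control wells, capped at 0 and 100%. One two-parameter sigmoid per drug and line, fitted in a mixed model over all curves with the slope shared within a line.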

[2] = compound: CO[C@H]1C[C@@H]2CC[C@@H](C)[C@@](O)(O2)C(=O)C(=O)N2CCCC[C@H]2C(=O)O[C@H]([C@H](C)C[C@@H]2CC[C@@H](OC(=O)C(C)(CO)CO)[C@H](OC)C2)CC(=O)[C@H](C)/C=C(\C)[C@@H](O)[C@@H](OC)C(=O)[C@H](C)C[C@H](C)/C=C/C=C/C=C/1C [Temsirolimus]; settings: top dose 0.2 µM
Method: as §1

[3] = compound: C=CC(=O)Nc1ccc(C(=O)c2sc(Nc3ccc(N4CCN(C)CC4)cc3OC)nc2N)cc1 [XMD15-27]; settings: top dose 10.24 µM; top dose inferred
Method: as §1

Cell Line	AUC [1]	IC50 [1] [µM]	AUC [2]	AUC [3]	IC50 [3] [µM]	IC50 [2] [µM]
LAMA-84 (chronic myeloid leukaemia, suspension)	0.964	> 10	0.581	0.967	> 10.2	–
LAN-6 (neuroblastoma, adherent)	0.982	> 10	0.97	0.984	> 10.2	> 0.2
LB373-MEL-D (melanoma, adherent)	0.99	> 10	0.953	0.99	> 10.2	> 0.2
LB831-BLC (bladder, adherent)	0.985	> 10	0.874	0.987	> 10.2	0.2
LB1047-RCC (kidney, adherent)	0.983	> 10	0.689	0.975	> 10.2	0.0457
LB2518-MEL (melanoma, adherent)	0.984	> 10	0.962	0.987	> 10.2	> 0.2
LC4-1 (lymphoblastic leukaemia, suspension)	0.982	> 10	0.93	0.884	> 10.2	> 0.2
LC-1-sq (lung squamous cell carcinoma, adherent)	0.983	> 10	0.874	0.984	> 10.2	> 0.2
LCLC-97TM1 (large cell lung carcinoma, adherent)	0.98	> 10	0.909	0.813	6.21	> 0.2
LCLC-103H (large cell lung carcinoma, adherent)	0.975	> 10	0.919	0.981	> 10.2	> 0.2
LN-18 (glioma, adherent)	0.994	> 10	0.849	0.992	> 10.2	0.108
LN-229 (glioma, adherent)	0.984	> 10	0.865	0.988	> 10.2	0.176
LN-405 (glioma, adherent)	0.941	> 10	0.699	0.984	> 10.2	0.0531
LNZTA3WT4 (glioma, adherent)	0.989	> 10	0.851	0.989	> 10.2	0.149
LOU-NH91 (lung squamous cell carcinoma, adherent)	0.986	> 10	0.723	0.984	> 10.2	0.0575
LP-1 (myeloma, suspension)	0.989	> 10	0.988	0.993	> 10.2	> 0.2
LS-180 (large intestine, adherent)	0.954	> 10	0.93	0.985	> 10.2	> 0.2
LS-411N (large intestine, adherent)	0.978	> 10	0.964	0.973	> 10.2	> 0.2

Cell Line	AUC [1]	IC50 [1] [µM]	AUC [2]	AUC [3]	IC50 [3] [µM]	IC50 [2] [µM]
LS-513 (large intestine, adherent)	0.987	> 10	0.952	0.981	> 10.2	> 0.2
LS-1034 (large intestine, adherent)	0.978	> 10	0.948	0.986	> 10.2	> 0.2
LU-134-A (small cell lung carcinoma, suspension)	0.984	> 10	0.928	0.98	> 10.2	> 0.2
LU-135 (small cell lung carcinoma, suspension)	0.992	> 10	0.968	0.962	> 10.2	> 0.2
LU-139 (small cell lung carcinoma, suspension)	0.869	> 10	0.654	0.982	> 10.2	0.0379
LU-165 (small cell lung carcinoma, suspension)	0.982	> 10	0.972	0.986	> 10.2	> 0.2
LXF-289 (lung adenocarcinoma, adherent)	0.982	> 10	0.591	0.984	> 10.2	0.0221
LoVo (large intestine, adherent)	0.953	> 10	0.93	0.98	> 10.2	> 0.2
M059J (glioma, adherent)	0.983	> 10	0.688	0.985	> 10.2	0.0442
MC116 (B-cell lymphoma, suspension)	0.999	> 10	0.999	0.999	> 10.2	> 0.2
MC-CAR (haematopoietic neoplasm, suspension)	0.953	> 10	0.571	0.96	> 10.2	0.0191
MC-IXC (neuroblastoma, adherent)	0.996	> 10	0.984	0.996	> 10.2	> 0.2
MDA-MB-330 (breast, adherent)	0.986	> 10	0.551	0.986	> 10.2	0.0175
MDA-MB-361 (breast, adherent)	0.988	> 10	0.726	0.985	> 10.2	0.0544
MDA-MB-415 (breast, adherent)	0.983	> 10	0.603	0.983	> 10.2	0.0264
MDA-MB-436 (breast, adherent)	0.984	> 10	0.773	0.984	> 10.2	0.0991
MDA-MB-453 (breast, adherent)	0.976	> 10	0.925	0.935	> 10.2	> 0.2
MDST8 (large intestine, adherent)	0.986	> 10	0.269	0.988	> 10.2	0.00276

— the supplement of paper PMC4967469
